Assay results: the supplement of paper PMC8728848
The list shows a part of the results.

Columns and labels:
Assay in all cases: glycan array binding signal (z-score within array); higher = stronger binding
Settings in all cases: glycan notation: IUPAC condensed, linker removed
[1] = target: Gal(b1-4)GlcNAc(b1-2)[Gal(b1-4)GlcNAc(b1-6)]Man(a1-6)[GlcNAc(b1-4)][Gal(b1-4)GlcNAc(b1-2)Man(a1-3)]Man(b1-4)GlcNAc(b1-4)GlcNAc
How it was run: (§1)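 Arrays were curated from the Consortium for Functional Glycomics database, 3228 in total, and kept only where the protein sequence was available. Binding is expressed as a within-array Z-score. This score was averaged across arrays of the same protein sequence at different concentrations or buffers and across linkers, and negative values can be read as non-binding.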

[2] = target: Gal(b1-4)GlcNAc(b1-2)[Gal(b1-4)GlcNAc(b1-6)]Man(a1-6)[GlcNAc(b1-4)][Gal(b1-4)GlcNAc(b1-2)[Gal(b1-4)GlcNAc(b1-4)]Man(a1-3)]Man(b1-4)GlcNAc(b1-4)[Fuc(a1-6)]GlcNAc
How it was run: as §1

[3] = target: Gal(b1-4)GlcNAc(b1-3)Gal(b1-3)GalNAc
How it was run: as §1

[4] = target: Gal(b1-4)GlcNAc(b1-3)Gal(b1-3)GlcNAc
How it was run: as §1

[5] = target: Gal(b1-4)GlcNAc(b1-3)Gal(b1-4)Glc
How it was run: as §1

[6] = target: Gal(b1-4)GlcNAc(b1-3)Gal(b1-4)GlcNAc
How it was run: as §1

[7] = target: Gal(b1-4)GlcNAc(b1-3)Gal(b1-4)GlcNAc(b1-2)Man(a1-3)[Gal(b1-4)GlcNAc(b1-3)Gal(b1-4)GlcNAc(b1-2)Man(a1-6)]Man(b1-4)GlcNAc(b1-4)GlcNAc
How it was run: as §1

[8] = target: Gal(b1-4)GlcNAc(b1-3)Gal(b1-4)GlcNAc(b1-2)Man(a1-3)[Gal(b1-4)GlcNAc(b1-3)Gal(b1-4)GlcNAc(b1-2)Man(a1-6)]Man(b1-4)GlcNAc(b1-4)[Fuc(a1-6)]GlcNAc
How it was run: as §1

[9] = target: Gal(b1-4)GlcNAc(b1-3)Gal(b1-4)GlcNAc(b1-2)[Gal(b1-4)GlcNAc(b1-3)Gal(b1-4)GlcNAc(b1-6)]Man(a1-6)[Gal(b1-4)GlcNAc(b1-3)Gal(b1-4)GlcNAc(b1-2)Man(a1-3)]Man(b1-4)GlcNAc(b1-4)GlcNAc
How it was run: as §1

[10] = target: Gal(b1-4)GlcNAc(b1-3)Gal(b1-4)GlcNAc(b1-2)[Gal(b1-4)GlcNAc(b1-3)Gal(b1-4)GlcNAc(b1-6)]Man(a1-6)[Gal(b1-4)GlcNAc(b1-3)Gal(b1-4)GlcNAc(b1-2)Man(a1-3)]Man(b1-4)GlcNAc(b1-4)[Fuc(a1-6)]GlcNAc
How it was run: as §1

[11] = target: Gal(b1-4)GlcNAc(b1-3)Gal(b1-4)GlcNAc(b1-3)Gal(b1-4)GlcNAc
How it was run: as §1

[12] = target: Gal(b1-4)GlcNAc(b1-3)Gal(b1-4)GlcNAc(b1-3)Gal(b1-4)GlcNAc(b1-2)Man(a1-3)[Gal(b1-4)GlcNAc(b1-3)Gal(b1-4)GlcNAc(b1-3)Gal(b1-4)GlcNAc(b1-2)Man(a1-6)]Man(b1-4)GlcNAc(b1-4)GlcNAc
How it was run: as §1

[13] = target: Gal(b1-4)GlcNAc(b1-3)Gal(b1-4)GlcNAc(b1-3)Gal(b1-4)GlcNAc(b1-2)Man(a1-3)[Gal(b1-4)GlcNAc(b1-3)Gal(b1-4)GlcNAc(b1-3)Gal(b1-4)GlcNAc(b1-2)Man(a1-6)]Man(b1-4)GlcNAc(b1-4)[Fuc(a1-6)]GlcNAc
How it was run: as §1

[14] = target: Gal(b1-4)GlcNAc(b1-3)Gal(b1-4)GlcNAc(b1-3)Gal(b1-4)GlcNAc(b1-2)[Gal(b1-4)GlcNAc(b1-3)Gal(b1-4)GlcNAc(b1-3)Gal(b1-4)GlcNAc(b1-6)]Man(a1-6)[Gal(b1-4)GlcNAc(b1-3)Gal(b1-4)GlcNAc(b1-3)Gal(b1-4)GlcNAc(b1-2)Man(a1-3)]Man(b1-4)GlcNAc(b1-4)[Fuc(a1-6)]GlcNAc
How it was run: as §1

[15] = target: Gal(b1-4)GlcNAc(b1-3)Gal(b1-4)GlcNAc(b1-3)Gal(b1-4)GlcNAc(b1-3)Gal(b1-4)GlcNAc(b1-2)Man(a1-3)[Gal(b1-4)GlcNAc(b1-3)Gal(b1-4)GlcNAc(b1-3)Gal(b1-4)GlcNAc(b1-3)Gal(b1-4)GlcNAc(b1-2)Man(a1-6)]Man(b1-4)GlcNAc(b1-4)GlcNAc
How it was run: as §1

[16] = target: Gal(b1-4)GlcNAc(b1-3)Gal(b1-4)GlcNAc(b1-3)Gal(b1-4)GlcNAc(b1-3)Gal(b1-4)GlcNAc(b1-2)Man(a1-3)[Gal(b1-4)GlcNAc(b1-3)Gal(b1-4)GlcNAc(b1-3)Gal(b1-4)GlcNAc(b1-3)Gal(b1-4)GlcNAc(b1-2)Man(a1-6)]Man(b1-4)GlcNAc(b1-4)[Fuc(a1-6)]GlcNAc
How it was run: as §1

[17] = target: Gal(b1-4)GlcNAc(b1-3)Gal(b1-4)GlcNAc(b1-3)Gal(b1-4)GlcNAc(b1-3)Gal(b1-4)GlcNAc(b1-2)[Gal(b1-4)GlcNAc(b1-3)Gal(b1-4)GlcNAc(b1-3)Gal(b1-4)GlcNAc(b1-3)Gal(b1-4)GlcNAc(b1-6)]Man(a1-6)[Gal(b1-4)GlcNAc(b1-3)Gal(b1-4)GlcNAc(b1-3)Gal(b1-4)GlcNAc(b1-3)Gal(b1-4)GlcNAc(b1-2)Man(a1-3)]Man(b1-4)GlcNAc(b1-4)[Fuc(a1-6)]GlcNAc
How it was run: as §1

[18] = target: Gal(b1-4)GlcNAc(b1-3)Gal(b1-4)GlcNAc(b1-3)Gal(b1-4)GlcNAc(b1-3)Gal(b1-4)GlcNAc(b1-3)Gal(b1-4)GlcNAc(b1-2)Man(a1-3)[Gal(b1-4)GlcNAc(b1-3)Gal(b1-4)GlcNAc(b1-3)Gal(b1-4)GlcNAc(b1-3)Gal(b1-4)GlcNAc(b1-3)Gal(b1-4)GlcNAc(b1-2)Man(a1-6)]Man(b1-4)GlcNAc(b1-4)GlcNAc
How it was run: as §1

[19] = target: Gal(b1-4)GlcNAc(b1-3)Gal(b1-4)GlcNAc(b1-3)Gal(b1-4)GlcNAc(b1-3)Gal(b1-4)GlcNAc(b1-3)Gal(b1-4)GlcNAc(b1-2)Man(a1-3)[Gal(b1-4)GlcNAc(b1-3)Gal(b1-4)GlcNAc(b1-3)Gal(b1-4)GlcNAc(b1-3)Gal(b1-4)GlcNAc(b1-3)Gal(b1-4)GlcNAc(b1-2)Man(a1-6)]Man(b1-4)GlcNAc(b1-4)[Fuc(a1-6)]GlcNAc
How it was run: as §1

[20] = target: Gal(b1-4)GlcNAc(b1-3)Gal(b1-4)GlcNAc(b1-3)Gal(b1-4)GlcNAc(b1-3)Gal(b1-4)GlcNAc(b1-3)Gal(b1-4)GlcNAc(b1-2)[Gal(b1-4)GlcNAc(b1-3)Gal(b1-4)GlcNAc(b1-3)Gal(b1-4)GlcNAc(b1-3)Gal(b1-4)GlcNAc(b1-3)Gal(b1-4)GlcNAc(b1-6)]Man(a1-6)[Gal(b1-4)GlcNAc(b1-3)Gal(b1-4)GlcNAc(b1-3)Gal(b1-4)GlcNAc(b1-3)Gal(b1-4)GlcNAc(b1-3)Gal(b1-4)GlcNAc(b1-2)Man(a1-3)]Man(b1-4)GlcNAc(b1-4)[Fuc(a1-6)]GlcNAc
How it was run: as §1

[21] = target: Gal(b1-4)GlcNAc(b1-3)Gal(b1-4)GlcNAc(b1-3)Gal(b1-4)GlcNAc(b1-3)Gal(b1-4)GlcNAc(b1-3)Gal(b1-4)GlcNAc(b1-3)Gal(b1-4)GlcNAc(b1-2)Man(a1-3)[Gal(b1-4)GlcNAc(b1-3)Gal(b1-4)GlcNAc(b1-3)Gal(b1-4)GlcNAc(b1-3)Gal(b1-4)GlcNAc(b1-3)Gal(b1-4)GlcNAc(b1-3)Gal(b1-4)GlcNAc(b1-2)Man(a1-6)]Man(b1-4)GlcNAc(b1-4)GlcNAc
How it was run: as §1

[22] = target: Gal(b1-4)GlcNAc(b1-3)Gal(b1-4)GlcNAc(b1-3)GalNAc
How it was run: as §1

[23] = target: Gal(b1-4)GlcNAc(b1-3)Gal(b1-4)GlcNAc(b1-3)[Gal(b1-4)GlcNAc(b1-3)Gal(b1-4)GlcNAc(b1-6)]GalNAc
How it was run: as §1

B1: rCnSL-proA (Clitocybe nebularis) (protein)
chain: AAFFSLVVLLALLPFGIHASALPSTELTPRVNPNLPGPNDVFVGFRGTNNIVGAIYEKDGIKDTPLNNGADAEMGPGSYITDGLFTARIFASGSAGNNPGTTATVCKIYASGVQWRGAPKGYIPVAYFGNGPTAEQRRQTYLRTLGLPGTAIRFGNLNTNPGQGPTAPRQMVVPPGPLRSLLKASCFPAADTRLPQTLHYFEKRVDWNIITAADSQTWGH
B1 was tested. Which “glycan array binding signal (z-score)” value [1] did it give?
Its value is -0.375.

What about the “glycan array binding signal (z-score)” value [2] of the same binder?
Its value is 0.986.

And the “glycan array binding signal (z-score)” value [3]?
Its value is -0.209.

And the “glycan array binding signal (z-score)” value [4]?
The value was -0.503.

What about the “glycan array binding signal (z-score)” value [5] of the same binder?
Its value is 0.012.

What about the “glycan array binding signal (z-score)” value [6] of the same binder?
The value was -0.336.

And the “glycan array binding signal (z-score)” value [7]?
Its value is 5.99.

What about the “glycan array binding signal (z-score)” value [8] of the same binder?
The value was 1.32.

What about the “glycan array binding signal (z-score)” value [9] of the same binder?
The value was 1.27.

And the “glycan array binding signal (z-score)” value [10]?
Its value is 2.71.

What about the “glycan array binding signal (z-score)” value [11] of the same binder?
Its value is 0.529.

What about the “glycan array binding signal (z-score)” value [12] of the same binder?
The value was 4.45.

And the “glycan array binding signal (z-score)” value [13]?
The value was 1.3.

What about the “glycan array binding signal (z-score)” value [14] of the same binder?
Its value is 4.11.

And the “glycan array binding signal (z-score)” value [15]?
Its value is 2.14.

What about the “glycan array binding signal (z-score)” value [16] of the same binder?
Its value is 1.66.

What about the “glycan array binding signal (z-score)” value [17] of the same binder?
Its value is 4.64.

What about the “glycan array binding signal (z-score)” value [18] of the same binder?
Its value is 0.77.

And the “glycan array binding signal (z-score)” value [19]?
The value was 0.434.

And the “glycan array binding signal (z-score)” value [20]?
Its value is 3.94.

And the “glycan array binding signal (z-score)” value [21]?
Its value is 2.33.

What about the “glycan array binding signal (z-score)” value [22] of the same binder?
The value was 1.57.

And the “glycan array binding signal (z-score)” value [23]?
The value was 2.65.
